Laboratory results reported in the RNAGym collection of RNA variant scans (doi:10.7554/elife.90254).
The source gives no read counts; variants with many changes may rest on few reads.

B1: LINE1-full (parent)
chain: UACGUAGGUGGUUUUCCCCUGAUAGUGCUAAGGGGGCCUGGAAGUUUGGACUGGGCAGAGCUCAACACAGCGUGGCAAAGUGGCUGUGGCUAGACUGCCUCUCUGGAUUCCUCGUCACUCAGCAGGGCAUCUCUGAGAGAAAUGCC

Variants of: B1
Assay: self-cleavage, relative activity (ratio to wild type); higher = more cleavage; in vitro, sequencing; the parent is a self-cleaving ribozyme

Row | Variant | self-cleavage
1 | U12G A121U A141G | 1.44
2 | U12G A124C A129G | 1.1
3 | U12G C16A A77U U96C | 0.19
4 | U12G C18A U87C U102A | 0.28
5 | U12G C19U U46C G114A A117G A124G U143A | 1.05
6 | U12G C19U U104C U112A U115A A129G | 2.09
7 | U12G C28U U52G U96A U119C | 0
8 | U12G C56U U62C A65G A77G A129G | 0.44
9 | U12G C61G A107G U132C | 0.42
10 | U12G C61U A129U | 0.14
11 | U12G C71U A136U | 1.09
12 | U12G C95A C111U U143C | 0.08
13 | U12G G21A A43G U46A A57U U132G | 0.25
14 | U12G G32A U62G A117G | 0.94
15 | U12G G41A C133U | 1.21
16 | U12G G48A U109C | 0.84
17 | U12G G55U U62A | 0.05
18 | U12G G75A A124U | 1.11
19 | U12G G88A U119C | 0.06
20 | U12G U13A A50G A141G | 0.68
21 | U12G U13C U14C A65G G88A | 0.32
22 | U12G U13C U52A U100C G122A | 1.67
23 | U12G U13C U81A | 1.32
24 | U12G U13C U96C | 0

Row | Variant | self-cleavage
25 | U12G U13C U102A A141G | 1.62
26 | U12G U14C A57U A67U U100C U112C C113A U143C | 0.28
27 | U12G U14C C19U | 1.43
28 | U12G U14C U20C A129U | 0.26
29 | U12G U14C U52A | 2.3
30 | U12G U15A A77G A121G G144A | 1.11
31 | U12G U15A G40U A64U A141G | 0.44
32 | U12G U15C A30G A121C | 0
33 | U12G U15C A30U G72A U81C U102C C111U A136G | 0.42
34 | U12G U15C A77C | 0
35 | U12G U15C A121G A140G | 0
36 | U12G U15C C95U U96C U119C U134C | 0
37 | U12G U15C G80U U115C C128U | 1.36
38 | U12G U20C A42G U45A | 1.51
39 | U12G U20C A43G U143A | 0.98
40 | U12G U20C A107U U132C U143A | 1.1
41 | U12G U23A A138U U143A | 2
42 | U12G U23C A77G A136G | 1.84
43 | U12G U26A U87A U91A | 0.28
44 | U12G U26C A94U | 0.66
45 | U12G U26C U39A A50U | 0.74
46 | U12G U26C U39A U47C A92G G105A A129G A142G | 0.73
47 | U12G U26C U73C A121G | 0
48 | U12G U26C U119C | 0.61

Row | Variant | self-cleavage
49 | U12G U29C U108C | 1.53
50 | U12G U29C U130C | 0.97
51 | U12G U29G A30G | 0.66
52 | U12G U39C A50G | 0.91
53 | U12G U39C U91C A136G | 0
54 | U12G U39C U143A | 0.4
55 | U12G U45A A77G C99U A124G | 1.11
56 | U12G U45C U62C U73C U104A A136G | 0
57 | U12G U45C U132C | 0.86
58 | U12G U46C U52A | 1.07
59 | U12G U47A C61U U62C U96G A140G | 0.05
60 | U12G U47C A57G A138G | 0
61 | U12G U47C U104C U115A | 1.84
62 | U12G U52A A138U | 0.9
63 | U12G U52A U108C | 1.84
64 | U12G U52C A57G | 2.24
65 | U12G U52C G55A A77G G139A | 0.57
66 | U12G U52G A92G | 0
67 | U12G U62A U100A A124U | 0.24
68 | U12G U62C A69U U85C U100C C120U | 0.51
69 | U12G U62C U108C | 0.15
70 | U12G U81A U112C | 1.78
71 | U12G U87C U96C U132C | 0
72 | U12G U96A A107G | 0.2

Row | Variant | self-cleavage
73 | U12G U96A A124U | 0.03
74 | U12G U96A C120A A136G | 0
75 | U12G U102C U115A | 1
76 | U12G U108A U134A | 0.93
77 | U12G U108C U134C | 0.43
78 | U12G U109A U134C | 2.83
79 | U12G U134C A142G | 0
80 | U13A A22G U132C | 0.55
81 | U13A A22U A43G U62A | 0.06
82 | U13A A30G G75C | 0.53
83 | U13A A31U U47C A136G A138G | 0.34
84 | U13A A42G A59G | 0
85 | U13A A42G A69U U112A | 0.08
86 | U13A A43G U109A | 0.99
87 | U13A A57G A94G A140G | 0
88 | U13A A57U C128G | 0.02
89 | U13A A57U U62A A79G U91C | 0
90 | U13A A57U U130C G135U | 0.13
91 | U13A A64G A78G U87G A129G | 0.15
92 | U13A A67U A117G | 0
93 | U13A A67U U143C | 0.25
94 | U13A A77G A94G U102A U132C | 0.2
95 | U13A A77G A129C | 1.76
96 | U13A A77G G114A | 2.02

Row | Variant | self-cleavage
97 | U13A A77U U85C | 0.11
98 | U13A A79G C98A U104A | 0.04
99 | U13A A94G A141G | 0.31
100 | U13A A94G U104C A121U | 0.34
101 | U13A A117G U130C | 1.77
102 | U13A A138U A140U | 1.19
103 | U13A A142U U143A | 0.89
104 | U13A C17U U26C A42G A43G U100C A140G | 0
105 | U13A C18U A65G | 0.13
106 | U13A C19U U96A | 0.11
107 | U13A C28A A69G A142G | 0.38
108 | U13A C51A A129U U134C | 0.73
109 | U13A C66U C120U | 0.02
110 | U13A C71U A140G | 0.54
111 | U13A G27A A77U | 0.72
112 | U13A G32A G33U A43G C61U A78C | 0.04
113 | U13A G32C U119C G126U | 1.29
114 | U13A G34A G144A | 1.03
115 | U13A G34A U115A | 0.6
116 | U13A G35A U109A | 0.39
117 | U13A G70A C99U U108C A140G | 0.05
118 | U13A G72A U115C | 0.91
119 | U13A U14A G88A | 0.05
120 | U13A U14C A43U C113A A117U | 0.57

Row | Variant | self-cleavage
121 | U13A U14C A57G A129C | 0.21
122 | U13A U14C A79G U119A | 0.62
123 | U13A U14C U52C | 1.06
124 | U13A U14C U119C | 0.97
125 | U13A U15A A64G | 0.07
126 | U13A U15C A50G U73C A77G | 0
127 | U13A U15C A141G | 1.94
128 | U13A U15C U108A | 1.15
129 | U13A U20A C103A U134C | 1.05
130 | U13A U20C A43U | 1.34
131 | U13A U20C C84U G86A A94G A138G | 0.03
132 | U13A U20C G36C | 1.06
133 | U13A U20C U73A U81A | 1.29
134 | U13A U23C A67G | 0.6
135 | U13A U26A U104A | 0.76
136 | U13A U39A A65U A129G U130C | 0.48
137 | U13A U39C C71U | 0.29
138 | U13A U39C G55U U102C | 0.1
139 | U13A U39C U115C | 0.54
140 | U13A U45C U91A | 0.6
141 | U13A U45C U104A | 0.86
142 | U13A U46C G72A A79G | 0.95
143 | U13A U47A U52C U108C G122A | 0.75
144 | U13A U47A U134C | 0.5

Row | Variant | self-cleavage
145 | U13A U52C G54C A78G A117G | 0
146 | U13A U62C A129G U132C | 0
147 | U13A U62C U102A | 0.02
148 | U13A U73C A78G | 0.81
149 | U13A U73C A79G U104A | 1.31
150 | U13A U81C U87G U143A | 0
151 | U13A U81C U100C A138G | 2.35
152 | U13A U85C A141G | 0.05
153 | U13A U100C A117G | 0
154 | U13A U102C U108C A140G | 1.15
155 | U13A U104C U143C | 1.31
156 | U13A U108C U119C | 0.74
157 | U13A U109C G135U | 0.79
158 | U13A U119C A141G | 1.46
159 | U13C A22C A64G | 0
160 | U13C A22G A50G U115A | 0.66
161 | U13C A22G A117C G122A | 1.64
162 | U13C A22G C37G U87C A107G A121U | 1.41
163 | U13C A22G G36A C56A A121U | 0.13
164 | U13C A22G G40A C71A A140G | 0.04
165 | U13C A22G G49C A65G G106A | 0.14
166 | U13C A22G G126U | 0.77
167 | U13C A22G U119C | 1.23
